Laboratory results taken from the antibiotic and cytotoxicity screens of Wong et al. (2023).
This is one part of the list.

Assays:
HSkMC = human skeletal muscle cells; experiment: cytotoxicity call (relative viability < 0.9); details: 10 µM
HepG2 = experiment: cytotoxicity call (relative viability < 0.9); details: 10 µM
S. aureus RN4220 = experiment: growth inhibition call (relative growth <= 0.2); details: 50 µM

SMILES: CN(C)Cc1cn(CC[C@@H]2CC[C@@H](N)[C@H](CO)O2)nn1
- cytotoxicity call (HSkMC): inactive
- cytotoxicity call (HepG2): inactive
- growth inhibition call (S. aureus RN4220): inactive

SMILES: C[C@@H]1CCCCO[C@H](CN(C)C(=O)Cc2ccccc2)[C@@H](C)CN([C@H](C)CO)C(=O)c2cc(NS(=O)(=O)c3ccc(Cl)cc3)ccc2O1
- cytotoxicity call (HSkMC): inactive
- cytotoxicity call (HepG2): inactive
- growth inhibition call (S. aureus RN4220): inactive

SMILES: C[C@H]1CCCCO[C@@H](CN(C)Cc2ccc(C(F)(F)F)cc2)[C@@H](C)CN([C@@H](C)CO)C(=O)c2cc(NC(=O)Nc3ccc(F)cc3)ccc2O1
- cytotoxicity call (HSkMC): inactive
- cytotoxicity call (HepG2): active
- growth inhibition call (S. aureus RN4220): inactive

SMILES: Cc1noc(C)c1NC(=O)N(C)C[C@@H]1Oc2ccc(NC(=O)C3CC3)cc2CC(=O)N([C@H](C)CO)C[C@@H]1C
- cytotoxicity call (HSkMC): inactive
- cytotoxicity call (HepG2): inactive
- growth inhibition call (S. aureus RN4220): inactive

SMILES: Cc1ccc(S(=O)(=O)N(C)C[C@@H]2Oc3ncc(Br)cc3C(=O)N([C@@H](C)CO)C[C@H]2C)cc1
- cytotoxicity call (HSkMC): inactive
- cytotoxicity call (HepG2): inactive
- growth inhibition call (S. aureus RN4220): inactive

SMILES: CC(=O)Nc1ccc(S(=O)(=O)Nc2onc(C)c2C)cc1
- cytotoxicity call (HSkMC): inactive
- cytotoxicity call (HepG2): inactive
- growth inhibition call (S. aureus RN4220): inactive

SMILES: C[C@H]1CN([C@@H](C)CO)C(=O)c2cc(C#CC3(O)CCCC3)cnc2O[C@@H]1CN(C)C(=O)C1CCOCC1
- cytotoxicity call (HSkMC): inactive
- cytotoxicity call (HepG2): inactive
- growth inhibition call (S. aureus RN4220): inactive

SMILES: O=C(O)C=CC=Cc1ccccc1
- cytotoxicity call (HSkMC): inactive
- cytotoxicity call (HepG2): inactive
- growth inhibition call (S. aureus RN4220): inactive

SMILES: C[C@@H]1CCCCO[C@H](CN(C)C(=O)C2CCCCC2)[C@H](C)CN([C@@H](C)CO)C(=O)c2cc(NC(=O)CCC(F)(F)F)ccc2O1
- cytotoxicity call (HSkMC): inactive
- cytotoxicity call (HepG2): inactive
- growth inhibition call (S. aureus RN4220): inactive
